# The whole screen tested about 350,000 compounds, of which about 31,000 (8.9%) were called active. Inconclusive means that the source gave no clear call. Such entries were picked first, then a sample of the others. Calls come from the whole dose curve; as a rule, active = well fitted inhibition curve with a large enough effect; inconclusive = small, poorly fitted or top-dose-only effect; inactive = no such curve, though single readings can be large or run the other way. Potencies of inconclusive entries are doubtful fits and often do not repeat.
# Target: Histone-lysine N-methyltransferase EHMT2 (Homo sapiens) (UniProt Q96KQ7)
# Experiment: qHTS Assay for Inhibitors of Histone Lysine Methyltransferase G9a; note: nearly all actives have a fitted effect of over 75% in size
# Conditions: G9a H3K9 monomethylation, AlphaScreen, 2 h; activity, negative = inhibition: at 59 µM (top of the series) unless noted
# Method in brief: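 Chemiluminescent proximity detection of H3K9 monomethylation, read after 10 min bead incubation in the dark. Reaction: 20 nM G9a, 500 nM biotin-H3K9 peptide, 20 uM SAM cofactor, 2 h, room temperature, following 15 min enzyme-compound preincubation.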
# % is set by controls: 0 for no effect and ±100 for the full control effect; potency is the fitted concentration of half-maximal effect; tags give direction and shape of the fitted curve.
# Sequence of UniProt Q96KQ7 (Q96KQ7 whole entry, looked up): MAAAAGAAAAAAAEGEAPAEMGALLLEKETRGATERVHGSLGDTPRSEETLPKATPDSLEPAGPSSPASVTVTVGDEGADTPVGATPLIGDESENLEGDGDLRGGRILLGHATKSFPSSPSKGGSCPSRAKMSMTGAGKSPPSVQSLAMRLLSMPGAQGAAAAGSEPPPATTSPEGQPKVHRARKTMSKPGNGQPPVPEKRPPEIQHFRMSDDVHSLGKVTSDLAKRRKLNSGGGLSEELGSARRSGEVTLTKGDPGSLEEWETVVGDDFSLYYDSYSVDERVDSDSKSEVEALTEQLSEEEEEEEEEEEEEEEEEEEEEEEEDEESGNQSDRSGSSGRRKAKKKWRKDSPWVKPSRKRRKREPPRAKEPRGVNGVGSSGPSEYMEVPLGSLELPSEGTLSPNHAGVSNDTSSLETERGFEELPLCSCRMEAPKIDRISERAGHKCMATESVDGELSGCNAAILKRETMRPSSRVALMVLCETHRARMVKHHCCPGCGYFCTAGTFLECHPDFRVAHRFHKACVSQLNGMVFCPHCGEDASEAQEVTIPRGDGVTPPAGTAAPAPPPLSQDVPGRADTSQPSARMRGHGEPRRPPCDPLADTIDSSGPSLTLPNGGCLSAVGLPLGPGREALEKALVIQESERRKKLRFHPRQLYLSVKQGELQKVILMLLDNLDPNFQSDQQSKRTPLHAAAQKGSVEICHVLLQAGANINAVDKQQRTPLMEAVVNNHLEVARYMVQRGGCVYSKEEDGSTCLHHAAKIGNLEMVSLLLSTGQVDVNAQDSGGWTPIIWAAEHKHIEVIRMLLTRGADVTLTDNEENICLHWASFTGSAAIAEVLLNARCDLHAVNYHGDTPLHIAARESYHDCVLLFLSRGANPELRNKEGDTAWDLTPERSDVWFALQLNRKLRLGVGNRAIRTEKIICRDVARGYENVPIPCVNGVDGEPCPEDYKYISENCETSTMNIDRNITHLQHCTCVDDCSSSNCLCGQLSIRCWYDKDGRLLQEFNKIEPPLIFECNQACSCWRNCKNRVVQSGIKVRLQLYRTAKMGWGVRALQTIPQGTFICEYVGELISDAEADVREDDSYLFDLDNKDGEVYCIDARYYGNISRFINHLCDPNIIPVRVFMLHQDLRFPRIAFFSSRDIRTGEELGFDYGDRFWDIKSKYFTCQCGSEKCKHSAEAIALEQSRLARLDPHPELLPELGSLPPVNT
SMILES,Potency,"activity, negative = inhibition"
Cc1cc(Br)ccc1NC(=O)CN(C)C(=O)CN1C(=O)NC2(CCCC2)C1=O,"inconclusive: 10 µM [inhibitor, partial curve, poor fit]",
COCCNC(=O)/C(C#N)=C/c1ccc(OCc2ccccc2)cc1,"inconclusive: 25.1 µM [inhibitor, partial curve, poor fit]",
CCOC(=O)CC(NC(=O)Cn1nnc(-c2ccccc2C)n1)c1ccc(OC)cc1 (configuration not stated),"inconclusive: 89.1 µM [inhibitor, single point]",
Cc1cc(C)n2cc(CSc3nc4ccccc4[nH]3)nc2n1,active: 20 µM,
O=C(COC(=O)CCC(=O)c1ccc(F)cc1)Nc1ccc2[nH]c(=O)[nH]c2c1,"inconclusive: 70.8 µM [inhibitor, partial curve, poor fit]",
O=C(N=C1SC2CS(=O)(=O)CC2N1c1cccc(Cl)c1Cl)C1CC1 (configuration not stated),inactive,
O=C(CN1CCN(C2CCCCC2)CC1)Nc1ccc(Br)cc1,"inconclusive: 70.8 µM [inhibitor, single point]",
CCOC(=O)C1=C(C)Nc2nc(C)nn2C1c1ccc(C)cc1 (configuration not stated),"inconclusive: 100 µM [inhibitor, single point]",
COc1ccc([N+](=O)[O-])cc1NCc1ccccc1,inactive,
CCOc1ccccc1C1c2[nH]c3ccccc3c2C[C@H]2C(=O)N(C3CCN(Cc4ccccc4)CC3)CC(=O)N12 (some centres not stated),"inconclusive: 3.16 µM [inhibitor, full curve]",
CCN(CC)CCCNC(=O)c1oc2c(c1C)-c1nn(Cc3ccc(Cl)cc3)cc1CC2,"inconclusive: 11.2 µM [inhibitor, partial curve, poor fit]",
COc1ccc(-n2ccnc2SCC(=O)Nc2ccc(OC)cc2OC)cc1,,inconclusive: -86.7% [inhibitor]
CCCc1nc2oc3ccccc3c(=O)c2c(=O)n1-c1ccc(C)cc1,"inconclusive: 70.8 µM [inhibitor, partial curve, poor fit]",
Nc1nc(=S)c2ncn(C3OC(CO)C(O)C3O)c2[nH]1 (configuration not stated),active: 2 µM,
CC(C)C(=O)Nc1nnc(CCN2CCCCC2)s1,"inconclusive: 8.91 µM [inhibitor, full curve, poor fit]",
O=C(CCNS(=O)(=O)c1ccc(Cl)cc1)N1CCN(Cc2ccccc2)CC1,"inconclusive: 79.4 µM [inhibitor, partial curve, poor fit]",
CCOc1ccccc1OCCCC(=O)Nc1cccc(-n2cnnn2)c1C,"inconclusive: 4.47 µM [inhibitor, single point]",
C/C(CCC1CC(C)OC1=O)=N\NC(N)=S (configuration not stated),active: 1.12 µM,
COc1cc(NS(=O)(=O)c2ccc(NC(=O)COc3ccc(C)cc3)cc2)nc(OC)n1,"inconclusive: 89.1 µM [inhibitor, single point]",
CCOC(=O)Cn1c(CN2CCN(C(c3ccccc3)c3ccccc3)CC2)nc2c1c(=O)n(C)c(=O)n2C,"inconclusive: 31.6 µM [inhibitor, single point]",
CC(=O)NNC(=O)c1ccncc1,inactive,
CCc1ccc(C(=O)c2cn(CC(=O)Nc3ccc(F)cc3)c3cc4c(cc3c2=O)OCO4)cc1,inactive,
CCC(C)N1CCNCC1 (configuration not stated),"inconclusive: 70.8 µM [inhibitor, partial curve, poor fit]",

SMILES,Potency,"activity, negative = inhibition"
Cc1cccc(-c2noc(C3CC(=O)N(c4ccc5c(c4)OCCO5)C3)n2)c1 (configuration not stated),inactive,
COc1ccc(NC(=O)Cn2c(C)c3cnn(-c4ccccc4)c(=O)c3c2C)c(OC)c1,inactive,
Cc1ccc(CN2CCN(Cc3cccc4nccnc34)CC2CCO)cc1 (configuration not stated),"inconclusive: 25.1 µM [inhibitor, partial curve, poor fit]",
COc1cccc(OCc2cc(C(=O)N3CCC(c4ccncc4)CC3)no2)c1,"inconclusive: 39.8 µM [inhibitor, single point]",
COC(=O)/C=C/C(=O)N1CCN(c2ccccc2C)CC1,inactive,
Cc1ccc(S(=O)(=O)Cn2nnnc2C(CC(C)C)N2CCN(C3CCCC3)CC2)cc1 (configuration not stated),"inconclusive: 89.1 µM [inhibitor, single point]",
CC1CCC2C(=O)N(c3ccc(S(=O)(=O)c4ccccc4)cc3)C(=O)C2C1 (configuration not stated),inactive,
Cc1nc2nc(C)c(NS(=O)(=O)c3ccc(C4CCCCC4)cc3)c(=O)n2[nH]1,"inconclusive: 89.1 µM [inhibitor, single point]",
O=C(NC1CCCC1)c1c(O)nc2sccn2c1=O,"inconclusive: 89.1 µM [inhibitor, single point]",
O=C(N/N=C/c1ccccc1O)NC12CC3CC(CC(C3)C1)C2,inactive,
O=C(CN1CCC(c2nc3ccccc3s2)CC1)NCc1cccs1,"inconclusive: 1.78 µM [inhibitor, full curve, poor fit]",
CC(C)C(=O)N1CCN(c2ccc(NC(=O)c3cccs3)cc2)CC1,"inconclusive: 39.8 µM [inhibitor, single point]",
CCOC(=O)C(=O)N(CC)C1CCS(=O)(=O)C1 (configuration not stated),"inconclusive: 50.1 µM [inhibitor, partial curve, poor fit]",
COCCN1C(=O)C(=O)/C(=C(/O)c2cccc(OC)c2)C1c1ccc(C)o1 (configuration not stated),,inactive: 18.1% [at 12.7 µM]
CCOc1ccc(NC(=O)CSc2ncc3c(n2)-c2ccccc2N(C)S3(=O)=O)cc1,inactive,
COCCNC(=O)CCC(=O)NNc1nc2ccccc2c2nc(-c3ccccc3)nn12,inactive,
O=C(O)c1cccnc1-c1ncccc1C(=O)O,active: 56.2 µM,
O=C(O)/C=C/C(=O)c1ccc(O)cc1,"inconclusive: 50.1 µM [inhibitor, partial curve]",
CCc1ccc(CNC(=O)c2ccc(CSc3nc4ccncc4n3Cc3ccccc3)cc2)cc1,"inconclusive: 17.8 µM [inhibitor, partial curve, poor fit]",
CCOC(=O)/C(=N\Nc1cc(Cl)ccc1Cl)N1CCOCC1,"inconclusive: 25.1 µM [inhibitor, full curve, poor fit]",
Nc1nn(-c2ccccc2)c(N)c1N=Nc1ccccc1F,"inconclusive: 25.1 µM [inhibitor, single point]",
C=CCn1c(SCC(=O)c2ccccc2)nnc1-c1ccc2c(c1)OCO2,active: 20 µM,
O=C(CCN1C(=O)C2CC=CCC2C1=O)Nc1cc(C(F)(F)F)ccc1N1CCCC1 (configuration not stated),"inconclusive: 79.4 µM [inhibitor, single point]",

SMILES,Potency,"activity, negative = inhibition"
O=C(CCc1ccccc1)Nc1nnc(-c2cccs2)o1,"inconclusive: 3.16 µM [inhibitor, full curve]",
COc1ccc(CNC(=O)Nc2cn(CC(C)C)c(=O)c3ccccc23)c(OC)c1,"inconclusive: 31.6 µM [inhibitor, single point]",
CC1Cc2ccccc2N1C(=O)CNc1cccc(S(=O)(=O)N2CCCC2)c1 (configuration not stated),active: 50.1 µM,
COC(=O)C1CCN(c2c([N+](=O)[O-])cc(C(F)(F)F)cc2[N+](=O)[O-])CC1,"inconclusive: 10 µM [inhibitor, partial curve, poor fit]",
Cc1ccc(/C=c2\sc3nc(-c4cccnc4)nn3c2=O)cc1,"inconclusive: 35.5 µM [inhibitor, single point]",
Cc1cc(C)nc(NNC2=CC(=O)CC(C)(C)C2)n1,"inconclusive: 14.1 µM [inhibitor, partial curve, poor fit]",
Cc1ccc(N(CC(=O)NCc2ccco2)S(=O)(=O)c2ccccc2)cc1,"inconclusive: 79.4 µM [inhibitor, partial curve, poor fit]",
O=S1(=O)NC[C@]23C[C@H](c4ccc(F)cc4)[C@@H](C[C@@H]21)O3,inactive,
Cc1ccc(S(=O)(=O)N2CCC(C(=O)O)CC2)cc1C(=O)O,"inconclusive: 89.1 µM [inhibitor, single point]",
COc1ccc(-c2nc(NC(=O)c3ccc(OCC(=O)N4CCOCC4)c(OC)c3)sc2C)cc1,"inconclusive: 14.1 µM [inhibitor, single point]",
Cc1ccc2c(c1)c1c3n2CC(=C2C(=O)OC(C)(C)OC2=O)NC3CCC1 (configuration not stated),"inconclusive: 5.62 µM [inhibitor, single point]",
Cc1ccc2cc(CN(CC3CCCO3)C(=S)NCc3ccco3)c(=O)[nH]c2c1C (configuration not stated),active: 44.7 µM,
c1ccc(-c2cn(-c3ccccc3)c3ncnc(N4CCCCC4)c23)cc1,"inconclusive: 35.5 µM [inhibitor, partial curve]",
C=CCn1c(-c2cc(OC)c(OC)c(OC)c2)n[nH]c1=S,"inconclusive: 1.78 µM [inhibitor, partial curve, poor fit]",
COC(=O)[C@@H]1Cc2c([nH]c3ccccc23)C2CCC(=O)N21 (some centres not stated),"inconclusive: 89.1 µM [inhibitor, single point]",
Cc1ccc(Nc2c([N+](=O)[O-])c(=O)n(C)c3ccccc23)cc1,"inconclusive: 50.1 µM [inhibitor, partial curve]",
CN(C)S(=O)(=O)c1cc(NC(=O)c2cc(=O)c3ccccc3o2)ccc1Cl,"inconclusive: 70.8 µM [inhibitor, partial curve, poor fit]",
Cc1noc(-c2ccccc2OCC(=O)Nc2cccc([N+](=O)[O-])c2)n1,"inconclusive: 25.1 µM [inhibitor, single point]",
CCNC(=O)c1c(N)sc2c1CCCCC2,"inconclusive: 8.91 µM [inhibitor, partial curve, poor fit]",
O=C(CCl)N1CCN(S(=O)(=O)c2ccc3ccccc3c2)CC1,inactive,
O=C(CNc1ccccc1)N/N=C/c1cn(-c2ccccc2)nc1-c1ccccc1,inactive,

# From PubChem BioAssay AID504332 (National Center for Advancing Translational Sciences (NCATS), 2011)
